{
  "source": "PubChem BioAssay AID624417",
  "about": "(National Center for Advancing Translational Sciences (NCATS), 2012)",
  "note": "Out of some 410,000 compounds screened, about 6,400 (1.6%) were called active. This list was built around the results that the source calls inconclusive (neither active nor inactive); the mix of calls is not that of the screen. The call rests on the fitted dose curve; in most records, active means well fitted inhibition curve with a large enough effect; inconclusive means small, poorly fitted or top-dose-only effect; inactive means no such curve, though single readings can be large or run the other way. Potencies of inconclusive entries are left out as doubtful fits. On the % scale 0 is the no-effect control and ±100 the full control effect; potency means the concentration at half of the fitted maximal effect; tags describe the fitted curve by direction and shape.",
  "data": [
    {"biological_target": "Glucagon-like peptide 1 receptor (Homo sapiens) (UniProt P43220)", "sequence (P43220 whole entry, looked up)": "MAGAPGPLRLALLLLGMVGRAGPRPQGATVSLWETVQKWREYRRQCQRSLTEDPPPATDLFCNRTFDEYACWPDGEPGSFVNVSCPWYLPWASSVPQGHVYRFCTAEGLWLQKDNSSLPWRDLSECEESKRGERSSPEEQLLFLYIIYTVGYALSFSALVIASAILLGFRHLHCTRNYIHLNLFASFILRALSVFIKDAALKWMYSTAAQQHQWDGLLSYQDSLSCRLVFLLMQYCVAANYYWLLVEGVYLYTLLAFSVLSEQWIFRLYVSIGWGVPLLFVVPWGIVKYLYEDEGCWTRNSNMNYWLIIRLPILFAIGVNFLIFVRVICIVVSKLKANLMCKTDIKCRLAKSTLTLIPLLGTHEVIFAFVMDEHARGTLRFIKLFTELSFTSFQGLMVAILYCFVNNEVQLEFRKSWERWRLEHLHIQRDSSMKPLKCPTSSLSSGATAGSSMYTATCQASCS", "test": "qHTS of GLP-1 Receptor Inverse Agonists (Inhibition Mode); further: nearly all actives have a fitted effect of over 55% in size", "details": "HEK293 GLP-1R CRE-luciferase, luminescence, 24 h, GLP-1R form is constitutively active; activity change, negative = inhibition: at 38.3 µM (top of the series) unless noted", "description": "The overall goal of this project was to develop a novel assay for discovering small molecule ligands for class B1 G protein-coupled receptors (GPCRs). Very few agonists (or inverse agonists in inhibition mode) with generally weak activity for this entire group of physiologically important receptors are known to date. To establish proof-of-principle that this critical bottleneck can be overcome with a suitable screening approach, our studies focused on the class B1 receptor for glucagon-like peptide-1 (GLP-1R), a potential therapeutic target for diabetes and neurodegenerative disease. The assay was developed using a cell-based functional readout. Toward this goal, stably transfected HEK293 cell clones were established that co-express (i) a cAMP-responsive luciferase reporter gene, and (ii) constitutively active GLP-1R that upon ligand interaction inhibit (inverse agonists) the luciferase activity. In addition, two control cell lines were developed: (i) one that express only the cAMP-responsive reporter gene to enable initial exclusion of GLP-1R independent effects of candidate probes; and (ii) one with the reported gene cloned with another constitutively active orphan receptor GPR119 to enable exclusion of GLP-1R independent inhibitor effects of candidate inverse agonists. To that end, this assay was optimized for 1536-well format and screened against the MLSMR. […] NIH Molecular Libraries Probe Production Network [MLPCN] NIH Chemical Genomics Center [NCGC] Grant: NS064851 PI Name: Martin Beinborn, Tufts Medical Center\nSix ul of cell suspension (200 cells/uL in DMEM + 10% Nu serum + 1% pen-strep) is dispensed in a white solid 1536-well plate. The plates are incubated for 12 hours at 37 deg C at 5% CO2 followed by addition of 23 nL compounds. After 24 hr incubation at 37 deg C and 5% CO2, 3 uL of luciferase assay detection reagent is added. A luminescence read is obtained on the PerkinElmer Viewlux after 12 min incubation at room temperature.", "values": [
      {"smiles": "S=C(Nc1ccccn1)NC1CCCC1", "Potency": "inconclusive [inhibitor, single point]"},
      {"smiles": "Cc1ccc(C(=O)OCC(=O)NC2CCCC(C)C2C)cc1S(=O)(=O)N1CCCCC1", "note": "(configuration not stated)", "Potency": "inconclusive [inhibitor, partial curve]"},
      {"smiles": "Cc1cccc(N2C(=O)CN(Cc3ccccc3)C2=S)c1", "Potency": "inconclusive [inhibitor, partial curve, poor fit]"},
      {"smiles": "CCOC(=O)CSc1ncnc2c1cnn2-c1ccc(C)cc1", "activity change, negative = inhibition": "inactive: 2.47%"},
      {"smiles": "COc1ccc(CN(C(C)=O)c2cccc(C)c2C)cc1", "Potency": "inconclusive [inhibitor, partial curve, poor fit]"},
      {"smiles": "Cc1nc(C)c(C(=O)Nc2ncc([N+](=O)[O-])s2)o1", "Potency": "active: 3.98 µM"},
      {"smiles": "CC[C@]1(C(=O)OC)[C@H]2C(=O)N(Cc3ccccc3)C(=O)[C@H]2[C@H]2CN=C(SCc3ccc(Cl)cc3)N21", "Potency": "inconclusive [inhibitor, single point]"},
      {"smiles": "COc1ccc(-c2noc(CCC(=O)NCCc3cccc(C)c3)n2)cc1", "Potency": "inconclusive [inhibitor, single point]"},
      {"smiles": "OC1CCN(C(=S)NCCc2ccccc2)CC1", "activity change, negative = inhibition": "inactive: 12.1%"},
      {"smiles": "Cc1ccc(-n2nc(C)c3c2OC(N)=C(C#N)C3c2ccccc2F)cc1", "note": "(configuration not stated)", "activity change, negative = inhibition": "inactive: -23.9%"},
      {"smiles": "CC1CCCCN1CCCNC(=O)C1CCCN(c2ncnc3c2nc2n3CCCCC2)C1", "note": "(configuration not stated)", "Potency": "inconclusive [inhibitor, single point]"},
      {"smiles": "S=C(Nc1ccccc1)NC1CCN(Cc2ccccc2)CC1", "Potency": "inconclusive [inhibitor, single point]"},
      {"smiles": "Cc1ccc(S(=O)(=O)c2c(C)nn(C(C)(C)C)c2OC(=O)C2CCCC2)cc1", "Potency": "inconclusive [inhibitor, partial curve, poor fit]"},
      {"smiles": "CCS(=O)(=O)c1ncc(Cl)c(C(=O)Nc2ccccc2OC)n1", "activity change, negative = inhibition": "inactive: 130%"},
      {"smiles": "COCCn1c(SCC(=O)Nc2cc(C)on2)nc2c(c1=O)SC(C)C2", "note": "(configuration not stated)", "activity change, negative = inhibition": "inactive: 34.4%"},
      {"smiles": "COc1ccc(C(CNC(=O)COc2cc(C)ccc2Cl)N2CCCCC2)cc1", "note": "(configuration not stated)", "activity change, negative = inhibition": "inactive: 5.8%"},
      {"smiles": "CCCCn1c(=O)n(CC(O)c2ccccc2)c(=O)c2c1ncn2C1CCCC1", "note": "(configuration not stated)", "Potency": "inconclusive [inhibitor, partial curve, poor fit]"},
      {"smiles": "O=S1(=O)CC(N2CCN(CCO)CC2)CN1Cc1cn(Cc2cccc(Cl)c2)nn1", "note": "(configuration not stated)", "activity change, negative = inhibition": "inactive: 13.8%"},
      {"smiles": "O=C(Nc1ccc(Oc2cccnc2)cc1)c1ccccc1Cl", "Potency": "inconclusive [inhibitor, partial curve, poor fit]"},
      {"smiles": "O=C(NCCCN1CCN(c2ccccc2)CC1)c1ccc2nc(CCc3ccccc3)oc2c1", "activity change, negative = inhibition": "inactive: 15.8%"},
      {"smiles": "CCC(C)CCN1C(Nc2ccccc2)=NC[C@@H]1Cc1ccccc1", "note": "(some centres not stated)", "Potency": "inconclusive [inhibitor, single point]"},
      {"smiles": "O=C(Nc1ccccc1F)C(c1ccccc1)c1ccccc1", "Potency": "inconclusive [inhibitor, partial curve, poor fit]"},
      {"smiles": "COc1cc2ccccc2cc1C(=O)Nc1ccccc1Cl", "Potency": "inconclusive [inhibitor, single point]"},
      {"smiles": "Cc1ccc(OCc2cc(C(=O)N(C)CCn3ccnc3C)no2)cc1C", "Potency": "inconclusive [inhibitor, partial curve, poor fit]"},
      {"smiles": "Cc1nn(Cc2ccccc2Cl)c(C)c1C(=O)N(C)CC(=O)Nc1cccc(F)c1", "Potency": "inconclusive [inhibitor, single point]"},
      {"smiles": "Clc1ccccc1CSc1nncn1NC/C=C/c1ccccc1", "Potency": "inconclusive [inhibitor, single point]"},
      {"smiles": "Cc1cc(C=O)c(C)n1-c1ccc(N2CCCCC2)c([N+](=O)[O-])c1", "Potency": "inconclusive [inhibitor, partial curve]"},
      {"smiles": "COCC1CCCCN1Cc1cn(-c2ccccc2)nc1-c1ccc2c(c1)OCO2", "note": "(configuration not stated)", "Potency": "inconclusive [inhibitor, partial curve, poor fit]"},
      {"smiles": "Cc1ccc(S(=O)(=O)NCC(=O)NNC(=O)c2ccc(Br)cc2)cc1C", "Potency": "inconclusive [inhibitor, full curve, poor fit]"},
      {"smiles": "Cc1nn(-c2ccc(Cl)cc2)c(Cl)c1/C=C(\\C#N)C(N)=O", "Potency": "inconclusive [inhibitor, single point]"},
      {"smiles": "CCOc1ccccc1/C=N/Nc1ccnc(=O)[nH]1", "activity change, negative = inhibition": "inactive: -19.1%"},
      {"smiles": "Cc1ccc(C2c3[nH]c4ccccc4c3CCN2C(=O)CSc2ccccc2)cc1", "note": "(configuration not stated)", "Potency": "inconclusive [inhibitor, partial curve, poor fit]"},
      {"smiles": "Cc1cc2occ(CC(=O)NC3CCCc4ccccc43)c2cc1C", "note": "(configuration not stated)", "Potency": "inconclusive [inhibitor, partial curve, poor fit]"},
      {"smiles": "O=C(Nc1c(C(=O)N2CCN(c3ccccc3F)CC2)oc2ccccc12)c1ccc(Br)o1", "Potency": "inconclusive [inhibitor, single point]"},
      {"smiles": "COc1ccc(CNC(=O)c2c(O)c3ccccc3n(C)c2=O)cc1OC", "activity change, negative = inhibition": "inactive: 13.8%"},
      {"smiles": "Oc1ccccc1-c1nc2ccc(Cl)cn2c1Nc1ccc2c(c1)OCCO2", "activity change, negative = inhibition": "inactive: 4.4%"},
      {"smiles": "Cc1c(C(=O)Nc2cccc(F)c2)cnn1-c1ccccc1", "Potency": "inconclusive [inhibitor, single point]"},
      {"smiles": "O=C(NNc1ccccc1)OCc1ccccc1", "Potency": "inconclusive [inhibitor, full curve, poor fit]"},
      {"smiles": "O=[N+]([O-])c1ccc(Nc2ccccc2)c2nonc12", "activity change, negative = inhibition": "inactive: -2.42%"},
      {"smiles": "O=C(Cn1ncc2c1-c1ccccc1OC2)Nc1ccc(S(=O)(=O)N2CCCCC2)cc1", "Potency": "inconclusive [inhibitor, single point]"},
      {"smiles": "COc1cccc(/C=N/Nc2ncnc(Cl)c2N)c1O", "Potency": "inconclusive [inhibitor, partial curve, poor fit]"},
      {"smiles": "CC1=CCC2C(=O)N(c3cccc(C(=O)Nc4ccc(Cl)cc4)c3)C(=O)C2C1", "note": "(configuration not stated)", "Potency": "inconclusive [inhibitor, partial curve, poor fit]"},
      {"smiles": "Cc1cc(=O)[nH]c(N=N/C(=N/Nc2ccccc2C)c2ccccc2)n1", "Potency": "inconclusive [inhibitor, full curve, poor fit]"},
      {"smiles": "O=C(CCCc1c[nH]c2ccccc12)NCC1COc2ccccc2O1", "note": "(configuration not stated)", "Potency": "inconclusive [inhibitor, partial curve, poor fit]"},
      {"smiles": "O=C(Nc1ccc(Oc2cccnc2)cc1)C1CCN(Cc2cccc(Cl)c2)CC1", "Potency": "inconclusive [inhibitor, partial curve, poor fit]"},
      {"smiles": "Cc1ccc(C(=O)NCCN2CCC(n3c(=O)[nH]c4ccccc43)CC2)cc1", "activity change, negative = inhibition": "inactive: -15%"},
      {"smiles": "O=C(CN1CCN(C/C=C/c2ccccc2)CC1)NCc1ccccc1", "Potency": "inconclusive [inhibitor, partial curve, poor fit]"},
      {"smiles": "Clc1ccc2nc(-c3ccccc3)c(CC3CCCCC3)n2c1", "Potency": "inconclusive [inhibitor, single point]"},
      {"smiles": "COC(=O)C1=C(C)N(Cc2ccco2)C(=O)/C1=C\\c1ccc(N(C)C)cc1", "activity change, negative = inhibition": "inactive: 23.2%"},
      {"smiles": "Cc1cccc(NC(=O)C(Cc2ccccc2)N2Cc3ccccc3C2=O)c1C", "note": "(configuration not stated)", "Potency": "inconclusive [inhibitor, single point]"},
      {"smiles": "Cc1cccc(C)c1Nc1c(-c2ccccn2)nc2ccccn12", "Potency": "inconclusive [inhibitor, partial curve, poor fit]"},
      {"smiles": "CCc1nn(CC(=O)NCCN(CC(C)C)CC(C)C)c(=O)c2cc3sc(C)cc3n12", "activity change, negative = inhibition": "inactive: -13.2%"},
      {"smiles": "COc1ccc(-n2cc(-c3ccccc3)c3c(NCCCN4CCOCC4)ncnc32)cc1", "Potency": "inconclusive [inhibitor, partial curve, poor fit]"},
      {"smiles": "COc1c(C)cccc1C(=O)NC(=S)Nc1ccc2c(c1)Cc1ccccc1-2", "activity change, negative = inhibition": "inactive: 1.55%"},
      {"smiles": "COc1ccccc1-c1sc2cc3c(cc2c1-c1ccc(O)cc1)OCO3", "Potency": "inconclusive [inhibitor, single point]"},
      {"smiles": "COc1ccc(NS(=O)(=O)c2ccc(NC(=O)c3ccc(CN4CCOCC4)cc3)cc2)cc1", "Potency": "inconclusive [inhibitor, full curve, poor fit]"},
      {"smiles": "COc1ccc(CN2CCNC(=O)C2CC(=O)NCCC2=CCCCC2)cc1OC", "note": "(configuration not stated)", "activity change, negative = inhibition": "inactive: 25.2%"},
      {"smiles": "O=C(N/N=C/c1ccccc1)c1[nH]c2ccc(Br)cc2c1-c1ccccc1", "activity change, negative = inhibition": "inactive: -2.48%"},
      {"smiles": "Cc1ccc(S(=O)(=O)Nc2ccc3c(c2)CCCN3C(=O)c2cccs2)cc1C", "Potency": "inconclusive [inhibitor, single point]"},
      {"smiles": "Cc1ccc(CNC(=O)C2CCC(=O)N(Cc3ccc(Cl)cc3)C2)cc1F", "note": "(configuration not stated)", "Potency": "inconclusive [inhibitor, single point]"},
      {"smiles": "O=C(Nc1cccc(F)c1)C1CCN(C(=O)N2CCOc3ccccc32)CC1", "Potency": "inconclusive [inhibitor, single point]"},
      {"smiles": "O=C(Nc1ccc(F)cc1F)c1cc(CN2CCOCC2)on1", "activity change, negative = inhibition": "inactive: 4%"},
      {"smiles": "CCOc1ccc(CN(C)CC(=O)Nc2cccc(S(=O)(=O)N(C)c3ccccc3)c2)cc1", "Potency": "inconclusive [inhibitor, partial curve, poor fit]"},
      {"smiles": "Nc1cccc(CCc2nc3cc4ccccc4cc3[nH]2)c1", "Potency": "inconclusive [inhibitor, full curve]"},
      {"smiles": "Cn1c(SCc2cccc(C#N)c2)nc2ccccc2c1=O", "Potency": "inconclusive [inhibitor, single point]"},
      {"smiles": "O=C(Nc1ccc2c(c1)OCCO2)c1ccc(Cl)c(S(=O)(=O)N2CCCCC2)c1", "Potency": "inconclusive [inhibitor, partial curve, poor fit]"},
      {"smiles": "CC(C)(C)NC(=O)NC(=O)CN1CCN(S(=O)(=O)c2ccc3c(c2)CCCC3)CC1", "Potency": "inconclusive [inhibitor, single point]"}
    ]}
  ]
}
